# In the supplement of paper PMC4604168 (melanoma cell lines):
# Some of the results follow. Many values rest on one well or one pass, so single values are uncertain.
# Test system: WM1745
# Test: cell count relative to DMSO control; melanoma cells; higher = more viable cells
# Settings: library dose: low library concentration; 72 h
# 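Also: cell number obtained by counting DAPI-stained nuclei in high-throughput microscope images with image analysis software, screen run in 1,536-well plates.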
row,SMILES,cell count [%]
1,"C=CCNC1=C2C[C@@H](C)C[C@H](OC)[C@H](O)[C@@H](C)/C=C(\C)[C@H](OC(N)=O)[C@@H](OC)/C=C\C=C(/C)C(=O)NC(=CC1=O)C2=O [Tanespimycin] + CC(C)CCN1c2nc(Nc3cc(F)c(O)c(F)c3)ncc2N(C)C(=O)C1C [BID1870] (first compound 0.002 µM, partner dose 0.2 µM)",95.6
2,"CS(=O)(=O)CCNCc1ccc(-c2ccc3ncnc(Nc4ccc(OCc5cccc(F)c5)c(Cl)c4)c3c2)o1 [lapatinib] + Nc1nc(F)nc2c1ncn2[C@@H]1O[C@H](CO)[C@@H](O)[C@@H]1O [fludarabine] (first compound 0.8 µM, partner dose 0.2 µM)",105
3,"CNC(=O)c1cc(Oc2ccc(NC(=O)Nc3ccc(Cl)c(C(F)(F)F)c3)cc2)ccn1 [sorafenib] + C#Cc1cccc(Nc2ncnc3cc(OCCOC)c(OCCOC)cc23)c1 [erlotinib] (first compound 0.4 µM, partner dose 0.8 µM)",65.6
4,"CN1CCN(c2ccc3nc(-c4c(N)c5c(F)cccc5[nH]c4=O)[nH]c3c2)CC1 [Dovitinib] + O=C(O)c1ccc2c(c1)nc(Nc1cccc(Cl)c1)c1ccncc12 [CX4945] (first compound 0.1 µM, partner dose 0.4 µM)",81
5,"CN1CCN(c2ccc3nc(-c4c(N)c5c(F)cccc5[nH]c4=O)[nH]c3c2)CC1 [Dovitinib] + O=C(Nc1ccccc1)c1cc([N+](=O)[O-])ccc1Cl [GW9662] (first compound 0.1 µM, partner dose 2 µM)",90.3
6,"C[C@@H](Oc1cc(-c2cnn(C3CCNCC3)c2)cnc1N)c1c(Cl)ccc(F)c1Cl [Crizotinib] + NCC(=O)Nc1ccc(-n2nc(C(F)(F)F)cc2-c2ccc3c(ccc4ccccc43)c2)cc1 [OSU03012] (first compound 0.2 µM, partner dose 1 µM)",92.9
7,"CN1CCN(c2ccc3nc(-c4c(N)c5c(F)cccc5[nH]c4=O)[nH]c3c2)CC1 [Dovitinib] + Cn1nnc2c(C(N)=O)ncn2c1=O [temozolomide] (first compound 0.1 µM, partner dose 2 µM)",76.9
8,"CNC(=O)c1cc(Oc2ccc(NC(=O)Nc3ccc(Cl)c(C(F)(F)F)c3)cc2)ccn1 [sorafenib] + O=C(Nc1ccccc1)c1cc([N+](=O)[O-])ccc1Cl [GW9662] (first compound 0.4 µM, partner dose 2 µM)",92.2
9,"CN1CCN(c2ccc3nc(-c4c(N)c5c(F)cccc5[nH]c4=O)[nH]c3c2)CC1 [Dovitinib] + O=C(O)[C@@H]1[O][Sb](=[O])([O][Sb]2(=[O])[O][C@H]([C@H](O)CO)[C@H](O)[C@H](C(=O)O)[O]2)[O][C@H]([C@H](O)CO)[C@@H]1O [stibogluconate] (first compound 0.1 µM, partner dose 2 µM)",95.1
10,"CS(=O)(=O)CCNCc1ccc(-c2ccc3ncnc(Nc4ccc(OCc5cccc(F)c5)c(Cl)c4)c3c2)o1 [lapatinib] + CN(C)S(=O)(=O)c1ccc2c(c1)/C(=C/c1cc3c([nH]1)CCCC3)C(=O)N2 [SU6656] (first compound 0.8 µM, partner dose 0.4 µM)",98.1
11,"C=CCNC1=C2C[C@@H](C)C[C@H](OC)[C@H](O)[C@@H](C)/C=C(\C)[C@H](OC(N)=O)[C@@H](OC)/C=C\C=C(/C)C(=O)NC(=CC1=O)C2=O [Tanespimycin] + CCc1ccc(CCOc2ccc(CC3SC(=O)NC3=O)cc2)nc1 [pioglitazone] (first compound 0.002 µM, partner dose 2 µM)",97
12,"CS(=O)(=O)CCNCc1ccc(-c2ccc3ncnc(Nc4ccc(OCc5cccc(F)c5)c(Cl)c4)c3c2)o1 [lapatinib] + COc1cc2ncnc(Nc3ccc(Oc4ccccc4)cc3)c2cc1OC [SrcI1] (first compound 0.8 µM, partner dose 2 µM)",97.5
13,"CNC(=O)c1cc(Oc2ccc(NC(=O)Nc3ccc(Cl)c(C(F)(F)F)c3)cc2)ccn1 [sorafenib] + COc1cc(N2CCC(N3CCN(C)CC3)CC2)ccc1Nc1ncc(Cl)c(Nc2ccccc2S(=O)(=O)C(C)C)n1 [NVP-TAE684] (first compound 0.4 µM, partner dose 0.08 µM)",88.6
